In PubChem BioAssay AID1346428 (National Center for Advancing Translational Sciences (NCATS), 2018) one finds activation data, which are given here for 82 molecules.

The structures appear in SMILES notation. “And” between values parts separate entries of the source, which are not always exact repeats. Equal values may be shown once. The campaign covered roughly 48,000 compounds. About 1,200 (2.5%) were called active. Roughly 2% stayed inconclusive and do not appear here.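 How the source made its calls: active means activation of at least 60% and not above a set upper limit (about 1 call in 100 departs from these limits); inconclusive means activation of 40% to 60%, or above that upper limit; inactive means activation under 40%.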 The list shows a part of the results.

The target of this assay is Probable G-protein coupled receptor 32 (Homo sapiens) (UniProt O75388). Briefly: qHTS for Agonists of Human Resolvin D1 Receptor DRV1. Further: 0% is about no effect. To be noted: CHO-K1 GPR32 beta-arrestin PathHunter luminescence, 90 min; at 76.9 µM; hits give high values; zero percent set by DMSO-only wells. A digest of the protocol: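 Agonism was scored as beta-arrestin recruitment to ProLink-fused GPR32 in stably transfected CHO-K1 cells, giving a chemiluminescent beta-Gal signal; compounds were incubated 90 min at 37 °C.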
Chain of UniProt O75388 (O75388 whole entry, looked up, the tested form may be a part): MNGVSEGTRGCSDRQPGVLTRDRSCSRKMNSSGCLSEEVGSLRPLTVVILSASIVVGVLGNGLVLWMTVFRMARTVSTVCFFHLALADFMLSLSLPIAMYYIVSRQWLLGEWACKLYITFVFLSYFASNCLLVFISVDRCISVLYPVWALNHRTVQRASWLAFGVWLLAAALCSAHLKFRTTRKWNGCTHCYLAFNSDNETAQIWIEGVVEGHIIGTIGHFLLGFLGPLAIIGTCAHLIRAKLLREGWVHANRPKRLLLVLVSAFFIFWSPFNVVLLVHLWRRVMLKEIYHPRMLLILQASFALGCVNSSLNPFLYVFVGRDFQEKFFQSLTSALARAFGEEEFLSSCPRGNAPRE
(qHTS replaces the single test concentration by a dilution series.)
As for `Cc1cc(S(=O)(=O)n2ccnc2C(C)C)cc([N+](=O)[O-])c1C`, the activation was inactive: -14.1%. On to `CCCNc1ccc(-c2nc(-c3ccco3)no2)cc1[N+](=O)[O-]`, for which the activation is inactive: 49.3%. Take `CCc1ccc(CNC(=O)C(CC)n2nc(C)c3c(C)n(-c4ccccc4)nc3c2=O)cc1` (configuration not stated): the activation was inactive: 9.3%. On to `CCOC(=O)c1[nH]c2ccccc2c1NC(=O)c1ccccc1OC`, for which the activation was inactive: 6.45%. Regarding `COc1ccc(CNc2nc(-c3ccco3)nn2C(=O)CC(C)C)cc1`, the activation is inactive: -26.1%. Take `CCOC(=O)c1nc(Nc2ccc(Cl)cc2)c2c(C)noc2n1`: the activation is inactive: 8.85%. Regarding `Cc1ccc(Cl)cc1N1CCN(C(=O)c2cn(CC(C)C)c(=O)c3c2c2ccccc2n3C)CC1`, the activation is inactive: 6.45%. As to `Cc1ccc(CCNC(=O)c2ccc(CNS(=O)(=O)c3ccc(C)cc3)cc2)cc1`, the activation was inactive: 12.3%. In the case of `O=C(Nc1cc(C(F)(F)F)ccc1Cl)c1ccc2c(c1)CCN2S(=O)(=O)c1ccccc1` it was inactive: -25.6%; in that of `CCC(C)(C)C(=O)O[C@H]1C[C@@H](C)C=C2C=C[C@H](C)[C@H](CC[C@@H]3C[C@@H](O)CC(=O)O3)[C@H]21`, inactive: 39.5%. Next, `COc1ccc(N2CCN(C(=O)c3ccc4c(c3)N(Cc3cc(C)ccc3C)C(=O)c3ccccc3S4=O)CC2)cc1` (configuration not stated): inactive: -9.84%; `Cc1cn2c(=O)cc(COc3cccc(NC(=O)c4ccccc4Cl)c3)nc2s1`: inactive: 2.93%; `COc1cccc(N2CC(NC(=O)C3CCCCC3)CC2=O)c1` (configuration not stated): inactive: -2.02%. Regarding `CC(=O)c1c(C)oc2ccc(NS(=O)(=O)c3ccc(C(C)C)cc3)cc12`, the activation was inactive: 31.4%.

As to `Cc1cc(C)c(Cn2c(=O)n(-c3ccccc3Cl)c(=O)c3c(C)c(C(=O)N(C)C)sc32)c(C)c1`, the activation is inactive: -1.89%. For `CC(Oc1ccccc1)C(=O)Nc1nnc(S(=O)(=O)N2CCCCCC2)s1` (configuration not stated), the activation is inactive: 2.98%. With `COc1ccc(C(=O)Nc2nnc(S(=O)(=O)N3CCN(c4ccc(C)cc4)CC3)s2)cc1`, the activation is inactive: 13.1%. `COc1ccc(-c2cc3nc(C)c(CCC(=O)Nc4ccc(F)cc4F)c(C)n3n2)c(OC)c1`: the activation was inactive: 2.51%. Regarding `COc1cccc(-c2cc(C(=O)Nc3ccc4c(c3)OCO4)no2)c1`, the activation is inactive: -1.78%.

As for `Cc1ccc(Oc2nc3c(c(=O)n(Cc4ccccc4Cl)c(=O)n3C)n2C)cc1C`, the activation is inactive: 25.6%.

For `COc1cccc(C(=O)c2sc(Nc3ccc(F)c(Cl)c3)nc2N)c1`, the activation was inactive: 2.95%.

Take `Cn1c(=O)c2sccc2n2c(CCC(=O)Nc3ccc(F)cc3)nnc12`: the activation is inactive: 1.31%. In the case of `Cc1cc(C)cc(NC(=O)C(=O)NCC(c2cccnc2)N2CCc3ccccc32)c1` (configuration not stated), the activation is inactive: -30.4%. Consider `CCC1CCCCN1CCCNC(=O)c1ccc2c(c1)sc1nc(-c3ccc(F)cc3)cn12` (configuration not stated), for which the activation is inactive: -5.53%. As for `COc1ccc(OC)c(-c2noc(N3CCN(c4cc(Cl)ccc4C)CC3)n2)c1`, the activation was inactive: 19.9%. Next, `Cc1ccc(C)c(NC(=O)CSc2nnc(C)n3c2cc2occc23)c1`: inactive: -2.15%; `C[C@@H]1CN(c2c(F)c(F)c3c(=O)c(C(=O)O)cn(C4CC4)c3c2F)C[C@H](C)N1`: inactive: 20.4%. In the case of `COC(=O)c1ccc(Cl)cc1NC(=O)Nc1nnc(N(C)Cc2ccccc2)s1`, the activation was inactive: -10.5%.

For the molecule `COc1ccc(C2c3c(-c4ccccc4O)n[nH]c3C(=O)N2CCc2ccccc2)cc1` (configuration not stated), the activation is inactive: 13.8%.

For the molecule `O=S(=O)(Nc1cccc(-c2ccc(N3CCOCC3)nn2)c1)c1cc(C(F)(F)F)ccc1Cl`, the activation was inactive: 42.9%. In the case of `COc1ccccc1NC(=O)CN1CCN(CC(=O)Nc2ccc(F)c(F)c2)CC1` it was inactive: 26.2%; in that of `COc1ccc2c(c1)c(=O)c(C(=O)c1ccc(C)cc1)cn2Cc1ccccc1F`, inactive: 7.72%.

Consider `CCOC(=O)c1ccc(CN(Cc2ccc(Br)cc2)S(=O)(=O)c2cccc(C(F)(F)F)c2)cc1`, for which the activation is inactive: -3.66%. For the molecule `CCC(C(=O)OC)n1nnc2sc(-c3ccccc3)cc2c1=O` (configuration not stated), the activation is inactive: 49.5%. Turning to `COc1cccc(OC)c1OCCNCC1CSc2ccccc2O1` (configuration not stated), the activation was inactive: 10.5%. Consider `O=C(COc1ccccc1Cl)Nc1ccccc1OCc1cc(=O)n2ccccc2n1`, for which the activation is inactive: -10.6%. For the molecule `Cc1ccc(N2C(=O)CS(=O)(=O)C23C(=O)N(Cc2ccccc2F)c2ccccc23)cc1Cl` (configuration not stated), the activation is inactive: -8.88%.

For `CCCCN(CC)CCNc1ncnc2onc(-c3ccc(Cl)cc3)c12`, the activation was inactive: 15.2%. Take `CN(c1ccccc1)C(CNS(=O)(=O)c1ccccc1)c1ccccc1` (configuration not stated): the activation was inactive: -19.1%. Turning to `O=C(CN1C(=O)C2CCCCN2c2ccc(C(=O)N3CCCC3)cc21)NCc1ccccc1F` (configuration not stated), the activation was inactive: -26.3%.

Regarding `Cc1cccc(NC(=O)NC2COc3ccccc3C2)c1C` (configuration not stated), the activation is inactive: -5.3%. Regarding `CNS(=O)(=O)c1cn(CC(=O)Nc2cccc(C(F)(F)F)c2)cc1S(=O)(=O)NC`, the activation is inactive: -4.88%.

On to `Cc1ccc(CN(Cc2ccco2)C(=O)c2cccc(C)c2)cc1`, for which the activation was inactive: -5.69%.

Turning to `COC(=O)c1sccc1S(=O)(=O)N(CC(=O)NCc1ccc(F)cc1)c1ccc(C)c(C)c1`, the activation is inactive: 9.18%. For the molecule `CC(C)COc1ccc(Nc2ncnc3ccc(Br)cc23)cc1`, the activation was inactive: 9.97%.

Take `COc1ccc(Cc2nnc(C(=O)NCCCN3CCN(c4ccccc4F)CC3)o2)cc1OC`: the activation is inactive: -24%. `CCCCS(=N)(=O)CCC(N)C(=O)O` (configuration not stated): the activation is inactive: 1.76%. Consider `CNS(=O)(=O)c1cn(CC(=O)N2CCN(c3ccc(C)cc3C)CC2)cc1S(=O)(=O)NC`, for which the activation was inactive: -3.51%. Next, `CC(=O)O[C@H]1CC2(C)[C@@H](C[C@@H](O)[C@H]3[C@@]4(C)CC[C@@H](O)[C@@H](C)[C@@H]4CC[C@@]32C)C1=C(CCC=C(C)C)C(=O)O` (some centres not stated): inactive: 9.37%. In the case of `Cc1cccc(N2CCN(C(=O)C3CCN(Cc4nc(-c5ccc(Cl)cc5)oc4C)CC3)CC2)c1C` it was inactive: 0.879%; in that of `COc1cc(OC)c(NC(=O)c2cc3c(s2)-c2ccc(Cl)cc2SC3)cc1Cl`, inactive: -6.77%; in that of `CCc1nn2c(-c3ccco3)ccnc2c1-c1ccccc1`, inactive: -5.61%. On to `N=c1nc(N2CCCCC2)cc(N)n1O`, for which the activation was inactive: -6.34% and inactive: 5.4%. As for `CCC1CN(C(=O)N2CCC(C(=O)NCc3cc(OC)ccc3OC)CC2)c2ccccc2O1` (configuration not stated), the activation was inactive: -12.5%.

`CCOC(=O)c1cc(S(=O)(=O)Nc2ccc(OC(F)(F)F)cc2)[nH]n1`: the activation is inactive: -8.1%.

As to `COc1ccc(NC(=O)CSc2nc(-c3ccc(OC)cc3)cc(=O)[nH]2)cc1`, the activation is inactive: -1.66%.

Take `Cn1c(C(=O)NCc2ccc(F)cc2)cc2cc(S(=O)(=O)N3CCCCC3)ccc21`: the activation was inactive: -20.5%. Turning to `COc1ccc(-c2cc3ccc(O)c(CN4CCN(CCO)CC4)c3oc2=O)cc1OC`, the activation is inactive: 11.9%. Next, `O=C(Nc1cccc(Cl)c1Cl)c1cc2nc(-c3ccc4c(c3)OCO4)cc(C(F)(F)F)n2n1`: inactive: -20.2%.

`Cc1cccn2c(Nc3ccc4c(c3)OCCO4)c(-c3ccc(Br)o3)nc12`: the activation is inactive: -0.413%. For the molecule `O=C(NCc1ccccc1Cl)c1cnc(N2CCCCC2)c2ccccc12`, the activation was inactive: -26.1%.

`CCN(C(=O)Cn1c(SCC(=O)NCc2ccccc2)nc2ccccc21)c1cccc(C)c1`: the activation is inactive: 1.73%. For `COc1ccccc1NC(=O)c1oc2ccccc2c1NC(=O)c1ccc(S(=O)(=O)N(C)C)cc1`, the activation was inactive: -13.9%. Next, `COc1cc(-c2nc3n(n2)C(c2ccc(F)cc2)C(C(N)=O)=C(C)N3)cc(OC)c1OC` (configuration not stated): inactive: 7.44%; `COc1ccc(OC)c(CNC(=O)c2cc(-c3ccc(Cl)s3)nc3ccccc23)c1`: inactive: -15.5%; `Cc1ccc(-n2nc(C(=O)NCCc3cccc(C)c3)c3c4ccccc4n(C)c3c2=O)cc1`: inactive: -7.57%.

As to `Cc1ccc(CNC(=O)c2cc(C3CC3)nc3c2c(C)nn3-c2cccc(Cl)c2C)cc1`, the activation is inactive: -3.28%.

For `CCCN(CCC)C(=O)c1c[nH]c2ccc(S(=O)(=O)Nc3cc(C)cc(C)c3)cc2c1=O`, the activation is inactive: -4.55%. In the case of `Cc1ccc(NC(=O)c2nc(S(=O)(=O)Cc3cccc(C)c3)ncc2Cl)cc1` it was inactive: -21.8%; in that of `Cc1ccc(N2C(=O)c3oc4cc(C)c(C)cc4c(=O)c3C2c2cccc(O)c2)nc1` (configuration not stated), inactive: 4.53%; in that of `COc1ccc(NC(=O)CSc2ccc(-c3cccs3)nn2)cc1`, active: 112%. `COc1ccc(/C=C/C(=O)N2CCC(c3nc4ccccc4o3)CC2)cc1`: the activation is inactive: -7.37%.

`CCOc1ccc(C(=O)Nc2ccc(C(=O)OCc3cc(=O)n4nc(CC)sc4n3)cc2)cc1`: the activation is inactive: -7.29%. In the case of `COC(=O)c1ccc(NC(=O)N2CCC(CN3CCc4ccccc4C3)CC2)cc1` it was inactive: -7.72%; in that of `CN(C)C(=O)COC(=O)Cc1ccc(OC(=O)c2ccc(N=C(N)N)cc2)cc1`, inactive: -11.3%; in that of `CCS(=O)(=O)c1nc(S(=O)(=O)c2ccc(C)cc2)c(NCc2ccc(Cl)cc2)s1`, inactive: -11.7%. Regarding `CCOC(=O)c1ccc(NS(=O)(=O)c2cn(C)c(C)n2)cc1`, the activation is inactive: -3.15%. As to `Cc1ccc(S(=O)(=O)N2CCCc3cc(NC(=O)c4ccc(F)c(F)c4)ccc32)cc1`, the activation is inactive: -14.6%.

As to `CCOc1ccc(N(CC)S(=O)(=O)N2CCCC(C(=O)Nc3ccc(NC(C)=O)cc3)C2)cc1` (configuration not stated), the activation was inactive: -11.7%.

Consider `O=C(COc1ccc2oc3c(c2c1)CCCC3)Nc1ccc(Cl)cc1`, for which the activation is active: 74.5%.

In the case of `CCOc1ccc(-c2c(C)nn3c(-c4ccccc4)c(C(=O)NCCOC)cnc23)cc1OCC`, the activation is inactive: 13.2%. Regarding `CC(=O)Oc1ccc(C(c2ccc(OC(C)=O)cc2)c2ccccn2)cc1`, the activation was inactive: -15.8%.
